Laboratory results: PubChem BioAssay AID1508642 (National Center for Advancing Translational Sciences (NCATS), 2021)
Screen size: about 43,000 compounds; about 200 (0.47%) were called active. About 12% were inconclusive and are not listed. Calls come from the whole dose curve; as a rule, active = well fitted cell-killing curve with a large enough effect; inconclusive = small, poorly fitted or top-dose-only effect, or effect the other way; inactive = flat fitted curve, though single readings scatter. This is one part of the list.

Test: Cell viability qHTS assay in S16 Pmp22-F2sN cells; note: nearly all actives have a fitted effect of over 65% in size
Conditions: S16 Pmp22-F2sN Schwann cells (luciferase reporters placed in the Pmp22 gene) viability, CellTiter-Glo, 24 h; series mostly up to 57.5 µM; activity change, negative = cytotoxicity: at the top concentration
How it was run: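 CellTiter-Glo counter-screen, qHTS, 1536-well. Cells: S16(c9) Pmp22-F2sN, 500-1,000/well in DMEM + 10% FBS. Cpd 23 nL pin transfer, 24 h, 37C/5% CO2. Read: luminescence, CCD imager.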
% is set by controls: 0 for no effect and ±100 for the full control effect.

SMILES	activity change, negative = cytotoxicity
CCOc1ccccc1NC(=O)NCCn1c(=O)oc2ccc(C)cc21	inactive: 4.83%
COc1ccccc1CNS(=O)(=O)c1cc2c3c(c1)CCN3C(=O)CC2	inactive: 3.12%
COc1ccc(-c2nc(-c3ccccc3)c(-c3ccc(O)cc3)[nH]2)cc1	inactive: -14.2%
COc1ccc(OC)c(CNC(=O)CCn2c(=O)c3cccn3c3ccc(F)cc32)c1	inactive: 3.99%
O=C(/C=C/c1ccc(F)cc1)Nc1nc2n(n1)C(c1ccc(Cl)cc1)C=C(c1ccccc1)N2 (stereo unspecified)	inactive: -6.05%
COc1ccc(Cn2c(C(=O)O)c(CNC3CCCCCC3)c3ccc(OC)cc32)cc1	inactive: 3.1%
Cc1cc(C)n(-c2nc3ccccc3nc2Nc2cc(C(=O)O)ccc2C)n1	inactive: 10%
Cc1ccc(CN2CCN(CC(=O)NCc3ccccc3Cl)C2=O)cc1	inactive: 2.95%
Cc1cc(C)cc(-n2nnc(-c3nc(-c4ccccc4F)no3)c2C)c1	inactive: -2.04%
COc1cc(NS(=O)(=O)c2ccc3c(c2)CCCN3C(C)=O)cc(OC)c1OC	inactive: -17.9%
COc1cccc(-c2cc(C(=O)Nc3ccc(C)cc3)[nH]n2)c1	inactive: 1.31%
COc1ccc(C(=O)N2CCc3cc(OC)c(OC)cc3C2COc2ccc3c(C)cc(=O)oc3c2)c(OC)c1 (stereo unspecified)	inactive: -5.5%
CCOc1ccc(C(=O)N2CCCCC2CCN2CCOCC2)cc1 (stereo unspecified)	inactive: 5.98%
COc1ccc(NC(=O)c2sc3nc(C)c(C(=O)Nc4ccc(Cl)cc4)c(-c4ccc(Br)cc4)c3c2N)cc1	inactive: -21.3%
Cc1ccc(NC(=O)C(=O)NCC(c2cccnc2)N2CCc3ccccc32)cc1Cl (stereo unspecified)	inactive: -29.8%
CCOc1ccccc1NC(=O)CN1C(=O)C2(SCC(=O)N2c2cccc(F)c2)c2ccccc21 (stereo unspecified)	inactive: -2.99%
Cc1c(Cl)cccc1NC(=O)CCn1nc(C)c2c(C)n(-c3ccccc3)nc2c1=O	inactive: 6.25%
COc1ccc(S(=O)(=O)N(CC(=O)NCc2ccc(C)cc2)c2ccc(Cl)cc2)cc1	inactive: 16.9%
COc1cc(C2c3c(oc4ccccc4c3=O)C(=O)N2c2nnc(C(C)C)s2)cc(OC)c1OC (stereo unspecified)	inactive: 2.77%
CCOc1ccc(OCC)c(NC(=O)CCc2c(C)nc3c(c2C)c(=O)n(C)c(=O)n3C)c1	inactive: -3.16%
CCSc1ncc(Cl)c(C(=O)Nc2c(C(=O)Nc3ccc(Cl)cc3)oc3ccccc23)n1	inactive: 0.793%
O=C(c1ccc2c(c1)N(Cc1ccccc1)C(=O)c1ccccc1S2(=O)=O)N1CCN(c2ccccn2)CC1	inactive: -2.22%
Cc1ccc(Cn2ccn(Cc3ccccc3C)c(=O)c2=O)cc1	inactive: 0.932%
COC(=O)c1ccccc1NC(=O)Cn1c(=O)n(-c2ccc(Cl)cc2)c(=O)c2c(C)c(C)sc21	inactive: 11%

SMILES	activity change, negative = cytotoxicity
COc1ccc(CNC(=O)c2ccc3c(c2)nc2n3CCCCC2)c(OC)c1	inactive: 6.94%
CCOC(=O)c1cccc(NS(=O)(=O)c2cn(C)c(C)n2)c1	inactive: -3.83%
CCc1ccc(S(=O)(=O)c2nnn3c2nc(N2CCCC2)c2sccc23)cc1	inactive: -3.19%
COc1ccc(-n2cc(-c3ccccc3)nc2SCC(=O)Nc2ccccc2)cc1Cl	inactive: -2.51%
CCCn1c(NCc2ccccc2C)nc2ccccc21	inactive: 16.4%
COc1ccc(NC(=O)COCc2cc(-c3cccs3)on2)cc1	inactive: 1.04%
Cc1ccccc1C1C=C(c2ccc(Cl)cc2)Nc2nnnn21 (stereo unspecified)	inactive: -2.34%
CN1C(=O)Cc2cc(S(=O)(=O)CCC(=O)N3CCN(c4ccccc4F)CC3)ccc21	inactive: -23.1%
COc1ccc(-c2cc(C(F)(F)F)n3nc(C(=O)Nc4cccc(Cl)c4C)cc3n2)cc1	inactive: 4.26%
CCOC(=O)c1ccc(NC(=O)Cn2cnc(S(=O)(=O)N3CCCC3)c2)cc1	inactive: -13.6%
CCOC(=O)c1ccc(NC(=O)CC2C(=O)N(c3ccc(F)cc3)C(=O)N2Cc2ccc3c(c2)OCO3)cc1 (stereo unspecified)	inactive: -25%
CCOC(=O)c1cccc(NC(=O)C2CCN(S(=O)(=O)c3cn(C)cn3)CC2)c1	inactive: 0.401%
Cc1ccc(C)c(NS(=O)(=O)c2cc3c(cc2Cl)NC(=O)CO3)c1	inactive: -5.39%
Cc1ccc2oc3c(c(=O)c2c1)C(c1ccc(F)cc1)N(c1nc(C)c(C)s1)C3=O (stereo unspecified)	inactive: 6.3%
COCCNC(=O)C(=O)NCC(c1cccnc1)N1CCN(c2ccccc2F)CC1 (stereo unspecified)	inactive: -3.38%
COc1ccc(C2CC(=O)Nc3c2c(=O)[nH]c2nc4ccccc4n32)cc1OC (stereo unspecified)	inactive: 1.37%
COc1ccccc1Nc1nc2ccc(Cl)cc2nc1-n1nc(C)cc1C	inactive: -0.302%
COc1ccc(NC(=O)c2nc3nc(C)cc(C(F)F)n3n2)c(C)c1	inactive: -13.9%
CCc1ccc(NC(=O)N2CC(C)Oc3ccc(C)cc32)cc1 (stereo unspecified)	inactive: 0.258%
COCCCNc1ncnc2c1cnn2-c1ccc(F)cc1	inactive: -10.8%
O=C(c1ccccc1Cl)n1nc(-c2cccnc2)nc1NCc1ccc(F)cc1	inactive: 6.85%
COC(=O)c1scc(-c2ccccc2)c1S(=O)(=O)Nc1cccc(C)c1C	inactive: 18.4%
CCCCOc1ccc(C(=O)N(Cc2ccc(C(C)C)cc2)C2CCS(=O)(=O)C2)cc1 (stereo unspecified)	inactive: 1.11%
Cc1c(CNC(C)CCc2ccccc2)c(C(=O)O)c(C)n1Cc1ccc(F)cc1Cl (stereo unspecified)	inactive: 5.76%

SMILES	activity change, negative = cytotoxicity
O=C(Nc1ccccc1-c1nc2ccccc2s1)c1cc(Cl)cc(Cl)c1	inactive: 0.0383%
COc1ccc(C2=NN(CC(=O)NCCCN(C)c3ccccc3)C(=O)CC2)cc1	inactive: -0.217%
COC(=O)c1cc2sc(C)cc2n1Cc1ccc(Br)cc1F	inactive: 6.4%
COc1ccc(N2CCN(C3=NS(=O)(=O)C(c4cccc(Br)c4)=C3C)CC2)cc1	inactive: 20.7%
CCOC(=O)c1ccc(NC(=O)CCc2c(C)nc3nc[nH]n3c2=O)cc1	inactive: -0.266%
Cc1cc(C)c(NC(=O)CCc2c(C)nc3c(c(C)nn3C(C)(C)C)c2C)c(C)c1	inactive: -1.66%
CCOC(=O)Cn1c(=O)n(C2CCCCC2)c2nc(-c3ccc(Cl)cc3)nc(C(N)=O)c21	inactive: -8.91%
Cc1ccc2c(=O)cc(CSc3nnc(-c4ccccc4)n3C)[nH]c2c1C	inactive: 13%
CC(C)c1ccc(S(=O)(=O)Nc2ccc3oc4c(c3c2)C(=O)CC(C)(C)C4)cc1	inactive: -1.14%
Cc1cc(C)c(NC(=O)c2cc3c(=O)n4ccccc4nc3n2C)c(C)c1	inactive: 1.38%
Cc1cc(-c2nc3ncccc3o2)ccc1NC(=O)c1ccc(Br)cc1	inactive: 4.36%
COc1ccc(OCC(=O)NCC(c2ccc(Cl)cc2)N2CCCCC2)cc1 (stereo unspecified)	inactive: 0.974%
CSc1ccc(CNC(=O)c2ccccc2NC(=O)c2nsc3ccccc23)cc1	inactive: -7.08%
CC(=O)N1c2ccccc2C(=O)C1N1CCN(c2ccccc2)CC1 (stereo unspecified)	inactive: -0.681%
COc1ccc(NC(=O)c2c(-c3ccccc3)c(-c3ccccc3)nn(C)c2=O)c(OC)c1	inactive: 0.998%
Cc1c(Cl)cccc1NC(=O)c1ccc(C(=O)Nc2cccc(Cl)c2C)cc1	inactive: 10.4%
CC1CCN(C(=O)c2cnn(-c3cccc(Cl)c3)c2C2CCN(C(=O)OC(C)(C)C)CC2)CC1	inactive: 8.5%
CC(=O)N1CCc2c(sc3c2c(=O)n(-c2ccccc2C)c(=O)n3Cc2cccc(F)c2)C1	inactive: 29.3%
COc1cc(OC)cc(-n2nnc(-c3nc(-c4ccccc4Cl)no3)c2N)c1	inactive: -1%
CCN(c1ccccc1)S(=O)(=O)c1ccc(NC(=O)c2cc(=O)c3cc(C)c(C)cc3o2)cc1	inactive: 4.62%
Cc1cccc(NS(=O)(=O)c2ccc3c(c2)CCN3C(=O)CCC(=O)O)c1C	inactive: -4.2%
Cc1ccc(NC(=O)CSc2nc3c([nH]c4ccccc43)c(=O)n2-c2ccccc2)c(C)c1	inactive: 14.3%
CCCCN1CCc2nc(N3CCN(c4ncccn4)CC3)ncc2C1	inactive: -12.6%
CCOc1ccc(C(=O)Nc2ccc3nc(SCc4ccccc4)sc3c2)cc1	inactive: 9.46%

SMILES	activity change, negative = cytotoxicity
COc1ccccc1N1CCN(C(=O)Cn2c(=O)nc(-c3ccccc3)c3cc(Cl)ccc32)CC1	inactive: 28.3%
CCOc1ccc(NC(=O)c2ccc(-c3ccccc3)s2)cc1	inactive: 14.1%
Cc1nc2c(-c3ccc(F)cc3)c(C)nn2c(C)c1CCC(=O)NCc1ccc(Cl)cc1	inactive: 11.7%
COc1cccc(-n2cc(C(=O)NCc3cccc(Cl)c3)c3ccccc3c2=O)c1	inactive: -20%
COc1ccc(S(=O)(=O)Nc2cc3c(cc2NCc2ccccc2)n(C)c(=O)n3C)cc1OC	inactive: -19.9%
CCOc1ccc(N2C(=O)N(Cc3ccc(C)cc3C)c3ccccc3S2(=O)=O)cc1	inactive: -0.788%
COc1ccccc1N1CCN(CC(O)COc2cc(C)cc(C)c2)CC1 (stereo unspecified)	inactive: -29.4%
COc1ccc(-c2ccc3c(N)c(C(=O)Nc4cc(F)ccc4C)sc3n2)cc1	inactive: -3.4%
Cc1cccc(Nc2c3c(nc4nncn24)CCC3)c1	inactive: -1.32%
CCn1cc(C(=O)N2CCN(c3cc(C)ccc3C)CC2)c(=O)c2cc(S(=O)(=O)N(C)C3CCCCC3)ccc21	inactive: -4.66%
COc1cccc(CNC(=O)CCCN2C(=O)CSc3c2c(C)nn3-c2ccccc2)c1	inactive: 3.44%
O=c1c2ccccc2n(Cc2cccc(F)c2)c(=O)n1Cc1ccccc1Cl	inactive: -12.4%
COC(=O)c1ccccc1NC(=O)c1ccc2nc(CCc3ccccc3)oc2c1	inactive: 6.77%
COc1ccc(Cn2ccnc2SCC(=O)NCc2ccco2)cc1	inactive: 5.15%
Cc1cccc(N2CCN(S(=O)(=O)c3ccc4c(c3)CC(=O)N4C)CC2)c1C	inactive: -13.1%
CCN(CC)CCNC(=O)Cn1nc(C)c2c(C)n(-c3ccccc3)nc2c1=O	inactive: 11%
Cc1ccc(Cl)cc1NC(=O)CSc1nc2ccccc2nc1Cc1ccccc1	inactive: -4.09%
COc1cccc(-c2noc(COc3ccccc3Cl)n2)c1	inactive: 2.45%
Cc1cccc(Cn2cc(S(=O)(=O)c3cccc(C)c3)c(=O)c3cc(F)c(N4CCOCC4)cc32)c1	inactive: -18.1%
Cc1ccc(CNC(=O)CCCn2c(=O)[nH]c3ccc(Br)cc3c2=O)cc1	inactive: 8.67%
CCOc1ccc(-n2c(SCC(=O)NC3CCCCC3)nc3c([nH]c4ccccc43)c2=O)cc1	inactive: 7.39%
Cc1ccc(-n2c(=O)c3c(cnn3C)n(CC(=O)Nc3ccccc3C)c2=O)cc1	inactive: -5.24%
CCCCn1c(=NC(=O)c2cc3ccccc3o2)c(C(=O)OCC)cc2c(=O)n3ccccc3nc21	inactive: -3.26%
O=C(Cn1c(=O)oc2cc(S(=O)(=O)N3CCCCC3)ccc21)NCc1ccc(Cl)cc1	inactive: -12.6%
